From ChEMBL document CHEMBL4888484, “Replenishing the malaria drug discovery pipeline: Screening and hit evaluation of the MMV Hit Generation Library 1 (HGL1) against asexual blood stage Plasmodium falciparum ,using a nano luciferase reporter read-out” (2022)
The whole screen tested about 150,000 compounds, of which about 540 (0.36%) showed an effect of 50% or more. The list shows a part of the results.

system: Plasmodium falciparum; assay: Primary screen in NF54 nanoGlo assay, in single point, at 2uM, 72h; a lower Z score goes with more inhibition; type: functional, Erythrocyte; conditions: timepoint 72 hour

Row | SMILES | % Inhibition | Z score
1 | CCc1cc(CC)c(NC(=O)N2CCC[C@H]2c2nc(C)no2)c(CC)c1 | 7% | -0.93
2 | CCn1c(CC2CCN(Cc3ccc(O)c(C(=O)O)c3)CC2)nn(C)c1=O | -6% | 1.28
3 | CCNC(=O)c1cccc(-n2cnc3c(C)ncnc32)c1 | 9% | -1.27
4 | CO[C@@]1(c2nnc3n2CC(C)(C)CC3)CCOC1 | -6% | 1.17
5 | CN1C(=O)[C@@]2(c3ccccc31)[C@@H](C(=O)Nc1ccc(F)cc1)C[C@H]1CCCN12 | -26% | 2.48
6 | COc1ccc(-c2noc(-c3c(C)n[nH]c3C)n2)cc1 | 4% | -0.49
7 | CC1CCCC(NC(=O)C2N(CCN(C)Cc3ccccc3)C(=O)[C@@H]3C(C(=O)Nc4ccc(Cl)cc4)[C@@H]4C=C[C@]23O4)C1C (stereo partly specified) | 8% | -1.21
8 | CCCN1C(=O)CC[C@@H]2CN(C(=O)c3ccc(F)cc3Cl)CC[C@@H]21 | -4% | 0.57
9 | CC[C@H](C)N(C)C(=O)Nc1ccc(S(N)(=O)=O)cc1 | 3% | -0.52
10 | CS(=O)(=O)N[C@H]1CC12CCN(C(=O)c1c[nH]c3ccccc13)CC2 | -3% | 0.42
11 | CC(C)(O)CN1CCN(C(=O)c2c[nH]c3cc(Cl)ccc23)CC1 | -6% | 1.23
12 | CC1CCC2(CC1)OCC(CNC(=O)C1CCCN1C1CCOCC1)O2 (stereo unspecified) | -15% | 1.65
13 | Cc1ccc(CNC(=O)Cc2nnc(Nc3ccccc3)s2)cc1 | -15% | 1.8
14 | CCCn1c(NCc2cc(Cl)ccc2O)nc2ccccc21 | 33% | -3.71
15 | CC[C@@H](CNC(=O)c1csc2c1CCN(Cc1c(C)noc1C)C2)N(C)C | -1% | 0.08
16 | Cc1cc(-c2ccccc2)c(C#N)c(=O)n1C(=O)c1ccc(C#N)cc1 | 37% | -1.09
17 | COc1ncccc1CNC(=O)C(=O)Nc1c(C)cnn1[C@H]1CCN(Cc2ccccc2)C1 | -21% | 3.23
18 | Cn1c(=O)c2c(ncn2CC(=O)N2c3ccccc3CCc3ccccc32)n(C)c1=O | -2% | 0.26
19 | O=C(NCCc1cccs1)Nc1cnns1 | -14% | 1.42
20 | CC(C)c1cc(CN(C)C(=O)Nc2ccnn2Cc2cccs2)no1 | 1% | -0.18
21 | Cn1nc(C(F)(F)F)c(Cl)c1CN | -10% | 1.62

Row | SMILES | % Inhibition | Z score
22 | CC(NC(=O)C1CCN(S(C)(=O)=O)c2ccccc2O1)c1ccccc1 (stereo unspecified) | -4% | 0.5
23 | COCc1nc([C@H]2C[C@H](NC(=O)c3cc(C#N)cn3C)C2)cc(=O)[nH]1 | 3% | -0.56
24 | Cc1ccc(CNC(=O)CCC(=O)Nc2nnc3ccccn23)o1 | 6% | -0.65
25 | CNC(=O)[C@@H](C)CN(C)CCCc1ccc(F)cc1 | 1% | -0.12
26 | O=C(c1cccc(=O)[nH]1)N1CCOC[C@H]1C1CC1 | -7% | 1.31
27 | CO[C@H]1C[C@@H](O)C12CCN(C(=O)c1ccc(C(C)C)cc1)CC2 | -11% | 1.44
28 | Cc1cc(C[C@H](C)n2cnc3nccnc3c2=O)[nH]n1 | -13% | 2.07
29 | CCNC(=O)c1ccc(OC(=O)c2cccc3cn[nH]c23)cc1 | -12% | 1.87
30 | CN1CCN(c2cc(-c3ccccc3)nc3ncnn23)C(C)(C)C1=O | -15% | 2.28
31 | CCn1c(C2CCN(Cc3ccc(C(=O)OC)cc3)CC2)nn(CCOC)c1=O | -2% | 0.28
32 | CNC(=O)c1cccnc1N1CC[C@H](CC2CC2)C1 | -10% | 1.4
33 | COc1ccccc1Nc1nc(-c2ccccc2)c(Oc2ccc(Cl)cc2)s1 | -2% | 0.49
34 | COc1ccc(-c2cn(Cc3snnc3C)nn2)c(OC)c1C | 3% | -0.58
35 | CCN1C(=O)[C@](C)(C(=O)Nc2ccc(OC)cc2)Oc2cccnc21 | -12% | 2.08
36 | Cc1cc(C)n(CCC(=O)N(C)Cc2nc(CC(C)C)no2)c(=O)n1 | -11% | 2.1
37 | Cc1ccc(CN(CCN2CCOCC2)C[C@@H](O)Cc2ccccc2)o1 | -9% | 1.41
38 | CC1CCCCC1NC(=O)C1(C)Cn2c(cc3occc32)C(=O)N1c1ccc(Cl)cc1 (stereo unspecified) | -8% | 1.59
39 | CN(C)c1ccc(-c2nncnn2)cc1 | -14% | 1.6
40 | CCCOc1ccc2ccccc2c1CN1CCN(C)[C@@H]2CS(=O)(=O)C[C@@H]21 | -5% | 0.52
41 | Cc1ccc(/C=C(\NC(=O)c2ccccc2)C(=O)NC2CCN(Cc3ccccc3)CC2)o1 | 6% | -1.12
42 | C=C1CCC(NC(=O)c2ccc3nsnc3c2)CC1 | 2% | -0.24

Row | SMILES | % Inhibition | Z score
43 | Cc1ccc(OCC(=O)Nc2cccc(O)c2)c(-n2cnnc2)c1 | -10% | 1.26
44 | C[C@]1(C(=O)O)CCN(C(=O)c2ccc3c(c2)CCC3)C1 | 3% | -0.58
45 | O=C(NC1CCN2CCCC2C1)c1ccc(Oc2ccc(Br)cc2)c(F)c1 (stereo unspecified) | -12% | 1.25
46 | Cc1cc(F)ccc1S(=O)(=O)N1CCC[C@H](Cc2nc(C3CC3)no2)C1 | 8% | -1.04
47 | COc1cc2c(cc1OC)[C@H](c1ccc(F)cc1)N(C(=O)c1cccc(F)c1)CC2 | -7% | 0.91
48 | Cc1ccc(NC(=O)Cn2cccc2-c2nc(-c3ccc(Cl)cc3)cs2)nc1 | -11% | 1.37
49 | CCN1C[C@H](CN(C)C(=O)CCn2cnc3c2c(=O)n(C)c(=O)n3C)Oc2ccccc21 | -4% | 0.54
50 | C[C@@H](c1cnccn1)N1CCc2ccc(S(C)(=O)=O)cc2CC1 | 3% | -0.55
51 | O=C(N[C@H]1CCCc2c1[nH]c1c(Cl)cccc21)c1ccncc1 | -6% | 0.79
52 | CC(C)CN(CC(=O)N1CCc2sccc2[C@@H]1COc1ccccc1)C(=O)Nc1cccc(Cl)c1 | -6% | 0.54
53 | CCC1(CC)Oc2ccc(NC(=O)N[C@@H]3CNC(=O)C3)cc2O1 | -8% | 1.2
54 | NC(=O)c1sccc1NC(=O)[C@H]1CCOC2(CCCC2)C1 | -9% | 1.98
55 | CCOc1ccc2c(c1)[C@@H](NC(=O)c1cn(-c3ccc(F)cc3)nn1)CCO2 | -5% | 0.77
56 | O=C(Nc1ccc(CN(C(=O)c2ccc[nH]2)C2CC2)cc1)c1ccc[nH]1 | -14% | 1.56
57 | O=S(=O)(NCc1ccc(-c2ccoc2)cc1)c1ccc(-n2cccn2)cc1 | -10% | 1.17
58 | CN(CCS(=O)(=O)N1CCCCC1)S(=O)(=O)c1cccs1 | -5% | 0.65
59 | CCc1ncsc1C(=O)N1CCCN(C)c2ccc(F)cc21 | -15% | 1.52
60 | COc1ccccc1CNC(=O)[C@]1(C)Cn2nc(-c3ccccc3)cc2C(=O)N1c1ccc(F)cc1 | -10% | 1.6
61 | COCCn1c(-c2ncn(C)n2)nnc1N1CCCC(F)(F)C1 | -6% | 0.85
62 | CC(C)N1CCC(NC(=O)CO)C1c1ccc(Cl)c(F)c1 (stereo unspecified) | 6% | -0.76
63 | COc1cc(C)c(NC(=O)N(C)[C@@H]2CCC[C@@H]2N2CCC(OC)C2)c(C)c1C (stereo partly specified) | -6% | 0.98

Row | SMILES | % Inhibition | Z score
64 | Cc1cc(=O)c(C(=O)NC2CCN(Cc3ccccc3)CC2)c(CC2CCCC2)n1C | 7% | -0.81
65 | O=C(O)c1cnc(NCC2CCN(Cc3ccncc3)CC2)c(Cl)c1 | -4% | 0.39
66 | CN(c1cccc(C(=O)NCCCN2CCOCC2)c1)S(C)(=O)=O | -6% | 0.87
67 | Cc1ccncc1S(=O)(=O)N(C)C(C)(C)C#N | -10% | 1.11
68 | O=C(O)Cc1cccc(NC(=O)C2C3Cc4ccccc4C32)c1 (stereo unspecified) | 33% | -4.42
69 | NC(=O)c1csc(N2CC(c3ccncc3)C2)n1 | -1% | 0.27
70 | CCc1nnc(NC(=O)COCC2CC2)s1 | -7% | 0.9
71 | CC(=O)c1ccc(CNc2ccnc(C(C)C)n2)nc1C | -21% | 3.26
72 | CC1(C)CC(NC(=O)CCc2nc(-c3ccc4cc[nH]c4c3)no2)CC(C)(C)N1 | 0% | -0.02
73 | CC[C@H](C)[C@@H]1NC(=O)[C@H](Cc2ccc(OC)cc2)NC1=O | -4% | 0.66
74 | c1ccc(CNc2nc(-c3ccc4nsnc4c3)cs2)cc1 | -1% | 0.22
75 | Cc1cnc(N2CC(=O)N[C@@H](C)C2)nc1N(C)C | -6% | 1.16
76 | CN(C)c1ccnc(N(C)C2CCC2O)n1 (stereo unspecified) | -15% | 1.86
77 | COc1ccc(OC)c(Nc2c(-c3c[nH]c4ccccc34)nc3cnccn23)c1 | -2% | 0.3
78 | CN(CC(=O)Nc1ncccn1)S(=O)(=O)c1ccc2c(c1)OCCCO2 | 33% | -4.48
79 | Cc1nc(Cc2nc(-c3cccc(OCCN(C)C)c3)no2)cs1 | 10% | -0.99
80 | CCS(=O)(=O)N1CCC2(CCO2)CC1 | -8% | 0.67
81 | CCCCn1nc(C(=O)N2CCc3ccccc32)ccc1=O | -16% | 3.11
82 | C[C@@H]1CN(C(=O)c2nc3ccc(Cl)cn3c2CNC(C2CC2)C2CC2)C[C@H](C)O1 | -15% | 1.65
83 | Cn1nnc(CN2C[C@@H]3[C@H](C2)[C@H]3NC(=O)c2cccn(C(C)(C)C)c2=O)n1 | -10% | 1.98
